Test results as given in ChEMBL document CHEMBL1201862, “PubChem BioAssay data set” (2004).
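Tested at 5 concentrations; 48 h exposure; 96-well plates; endpoints linearly interpolated, else capped at highest concentration. The concentration for 50% growth inhibition is given as GI50.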 Activity calls are given as the source filed them. Cut-off read from the data, not from the text of the source: active = GI50 up to about 1.1 µM and inactive = higher.

What follows are compounds tested on NCI-H322M (assay: growth of human tumour cells (NCI), 48 h).
In the case of `O=C(Nc1ccc(C(F)(F)F)cc1[N+](=O)[O-])c1cccnc1`, the GI50 is reported as inactive: 6.05 µM. In the case of `CC(C)(C)OC(=O)N(O)[C@@H]1C=C[C@H](n2cnc3c(N)ncnc32)C1`, the GI50 is reported as inactive: > 100 µM. `O[C@@H]1C[C@H]2N3CC[C@@]2(c2cc4c(cc2C3)OCO4)[C@H]2O[C@@H]12` was tested, and the GI50 was inactive: > 100 µM. `COC(=O)c1ccc(C)cc1C1CN=NC12Cc1c(C)cccc1C2=O` (configuration not stated) was tested, and the GI50 was inactive: 75.5 µM. With `OCCCCCNc1cc(O)nc(O)n1` the GI50 was inactive: > 100 µM. With `CC(=O)Nc1nc(C)c(S(=O)(=O)NC(=O)N2c3ccccc3CCc3ccccc32)s1` the GI50 was inactive: > 100 µM. With `CC[n+]1c(/C=C/c2ccc(N(CCCl)CCCl)cc2)ccc2cc(NC(=O)/C=C/c3ccccc3)ccc21` the GI50 was active: 1 µM. In the case of `C[C@@H](NC1CCCC[C@H]1O)c1ccccc1` (some centres not stated), the GI50 is reported as inactive: > 100 µM. For `O=c1[nH]nc(Cc2ccc([N+](=O)[O-])cc2)n1CCO`, the GI50 was inactive: > 100 µM. In the case of `COc1nc(C(=O)O)c(Cl)c(OC)c1Cl`, the GI50 is reported as inactive: > 100 µM. `NC(=O)NC(=O)c1cnccn1` was tested, and the GI50 was inactive: > 100 µM. With `O=C1Sc2cc3ccccc3cc2C(=O)Sc2cc3ccccc3cc21` the GI50 was inactive: > 100 µM. For `CN(C)c1nc(N(C)C)nc(N(C)CN(C)c2ccc(Cl)cc2)n1`, the GI50 was inactive: > 100 µM. In the case of `Oc1cc(Cl)cc2cc(Cl)cnc12`, the GI50 is reported as inactive: 11.5 µM. In the case of `CC(C)NCCC(O)c1cc2ccccc2o1` (configuration not stated), the GI50 is reported as inactive: > 100 µM. With `C/C(=N\O)c1sc(-n2nc(-c3ccccc3)cc2-c2ccccc2)nc1C` the GI50 was inactive: 19.2 µM. For `O=S(=O)(O)c1ccccc1/N=N\c1ccc(/N=N/c2c(O)ccc3ccccc23)c(S(=O)(=O)O)c1`, the GI50 was inactive: > 100 µM. For `COc1ccc(-c2nnc(-c3ccncc3)o2)cc1`, the GI50 was inactive: > 100 µM. With `CC(=O)Nc1ccc(-c2nc3ccccc3s2)cc1Br` the GI50 was inactive: 55 µM. For `COc1cc(Cc2cc(OC)c(OC)c(OC)c2)ccc1O`, the GI50 was inactive: 11.9 µM. For `O=C(N/C(=C\c1cccc([N+](=O)[O-])c1)c1nc2ccccc2[nH]1)c1ccccc1`, the GI50 was inactive: > 100 µM. `COC1=CC(=O)c2c(cc3c(c2O)-c2c(OC)cc4cc5c(c(O)c4c2OC(=O)CC(C)(O)C3)C(=O)CC(C)(O)C5)C1=O` (configuration not stated) was tested, and the GI50 was inactive: 1.91 µM. With `CC1C2CC(CC2O)C1(C)C` (configuration not stated) the GI50 was inactive: > 100 µM. With `COC1(OC)N=C(N)C2(C#N)C(C)=C3NCN(C)N=C3C12C#N` (configuration not stated) the GI50 was inactive: > 100 µM. With `C(/Cc1ccc2c(c1)OCO2)=N\N=C1NCCN1` the GI50 was inactive: > 100 µM. For `CCCCCCCCCCCCCCCCCCNc1ccn(C2OC(CO)C(OP(=O)(O)OCC(COP(=O)(O)OCC3OC(n4cc(F)c(NCCCCCCCCCCCCCCCCCC)nc4=O)CC3O)OC(=O)CCCCCCCCCCCCCCC)C2O)c(=O)n1` (configuration not stated), the GI50 was inactive: > 100 µM. With `CC(C)C(=O)N[C@@H](C)C(=O)N(Cc1ccc2ccccc2c1)N=O` the GI50 was inactive: > 100 µM. For `Cc1ccc(N2C(=O)N(c3ccc(C)cc3)C3(SC=NN3C)C2=O)cc1` (configuration not stated), the GI50 was inactive: > 100 µM. With `Nc1ccn([C@H]2CO[C@@H](CO)[C@@H]2O)c(=O)n1` the GI50 was inactive: > 100 µM. In the case of `CC(C)=CC(=O)N(C)C1C2CN3CCC(O2)C13` (configuration not stated), the GI50 is reported as inactive: > 100 µM. For `O=[N+]([O-])c1ccc(C(Cl)C(Cl)c2ccc(C(Cl)C(Cl)c3ccc([N+](=O)[O-])cc3[N+](=O)[O-])cc2)c([N+](=O)[O-])c1` (configuration not stated), the GI50 was inactive: 27 µM. In the case of `CCCC(=O)Nc1ncnc2c1ncn2C1OC2COP(=O)(O)OC2C1OC(=O)CCC` (configuration not stated), the GI50 is reported as inactive: > 100 µM. With `CC(=O)CC(=O)Nc1ccc2ccccc2c1` the GI50 was inactive: > 100 µM. In the case of `Clc1ccc(-c2ccc(-c3nn4c(CNc5ccccc5)nnc4s3)o2)c(Cl)c1`, the GI50 is reported as inactive: > 100 µM. With `S=C1CC(c2ccccc2)Sc2cc(Cl)ccc2N1` (configuration not stated) the GI50 was inactive: 7.05 µM. For `C#C[C@]1(O)CCCC2=CC(=O)CC[C@@]21C`, the GI50 was inactive: > 100 µM. `CCOC(=O)Cc1csc2[n+]1C(=O)/C(=C\c1cccc(Cl)c1Cl)S2` was tested, and the GI50 was inactive: 24.9 µM. For `C=CC(OC(C)=O)c1ccc(OC(C)=O)cc1` (configuration not stated), the GI50 was inactive: 16.2 µM. With `O=C(O)COc1cc(-c2ccccc2F)nc2cc3c(cc12)OCO3` the GI50 was inactive: > 100 µM. `CC(C)c1cccc(C(C)C)c1N1C(=O)C(=O)C(c2nc3ccccc3o2)C(=O)C1=O` was tested, and the GI50 was inactive: 75.5 µM. With `CC(=O)OC1C(O)C(C)OC(OC(=O)C2CCC3C(C2)OC2(CC(OC(=O)/C=C/c4ccccc4)C(C)CO2)C32CO2)C1OC1OC(C)C(O)C(O)C1O` (configuration not stated) the GI50 was active: 0.044 µM. With `CCCn1cnc2c(SCC(=O)O)nc(N)nc21` the GI50 was inactive: > 100 µM. With `CC(=O)c1cc2c3c(c1)c1cc4c(cc1c(=O)n3CC2)OCO4` the GI50 was inactive: 25.6 µM. In the case of `Nc1ccc(-c2nc3ccc(F)cc3s2)cc1Cl`, the GI50 is reported as inactive: > 87.7 µM. In the case of `C/C(CC(=O)NCCc1ccccc1)=N\NS(=O)(=O)c1ccc(C)cc1`, the GI50 is reported as inactive: > 100 µM. In the case of `O=C(NNC(=O)c1ccccc1S)c1ccccc1S` [BIS(THIOSALICYL)HYDRAZIDE], the GI50 is reported as inactive: 13.3 µM. With `Cc1c(O)c(=O)ccn1CCN` the GI50 was inactive: 84.7 µM. With `COc1cccc(/C=N/n2c(-c3ccccc3)n[nH]c2=O)c1` the GI50 was inactive: > 100 µM. For `CC(=O)OC12c3ccccc3C1CCCCCC21OCCCO1` (configuration not stated), the GI50 was inactive: > 100 µM. For `COC(=O)[C@@H](C)[C@H]1CC[C@@](C)(CCC2=C(C)CC3C=C(C)CCC3C2(C)C)OO1` (some centres not stated), the GI50 was inactive: 1.72 µM. For `C1CCN(c2nc(=[N+]3CCCCC3)ss2)CC1`, the GI50 was inactive: > 100 µM. In the case of `CC1C(=O)C(C)C(c2ccccc2)N(N=O)C1c1ccccc1` (configuration not stated), the GI50 is reported as inactive: > 434 µM. With `COc1ccc2nc3ccccc3c(NCCCCCN(CCCl)CCCl)c2c1` the GI50 was active: 0.106 µM. With `COc1cc2ccnc(-c3c4ccccc4c(N)c4c(OC)c(OC)ccc34)c2cc1OC` the GI50 was inactive: 2.43 µM. `CC(=O)Oc1ccccc1C(=O)C1c2cccc(O)c2C(=O)c2c(O)cccc21` was tested, and the GI50 was active: 0.982 µM. For `CC(=O)OCC1OC(n2c(-c3ccccc3)c(C(C)=O)c(-c3ccc(Cl)cc3)c(C#N)c2=S)C(OC(C)=O)C(OC(C)=O)C1OC(C)=O` (configuration not stated), the GI50 was inactive: > 100 µM. With `Cc1ccc(-n2nnc(C#N)c2O)cc1` the GI50 was inactive: > 100 µM. In the case of `COc1ccccc1NC(=O)C1=C(C)NC(C)=C(C(=O)Nc2ccccc2OC)C1c1ccc(C(C)C)cc1`, the GI50 is reported as inactive: > 100 µM. In the case of `CCCCNS(=O)(=O)c1ccc(-c2ccc3c(c2)-c2ccc(S(=O)(=O)NCCCC)cc2S3(=O)=O)cc1`, the GI50 is reported as inactive: 25.2 µM. `CC1=N/C(=C\c2cccc([N+](=O)[O-])c2)C(=O)O1` was tested, and the GI50 was inactive: > 100 µM. For `COc1ccc2cc(C(=O)c3ccccc3C(=O)O)ccc2c1`, the GI50 was inactive: > 100 µM. For `CC(=O)Nc1ccc(C(=O)NN2C(=O)C(Cl)C2c2ccccc2)cc1` (configuration not stated), the GI50 was inactive: > 100 µM. For `CCC1(OC(=O)CN)C(=O)OCc2c1cc1n(c2=O)Cc2cc3ccccc3nc2-1` (configuration not stated), the GI50 was active: 0.0485 µM. For `[N-]=[N+]=Nc1ccccc1-c1ccccc1[N+](=O)[O-]`, the GI50 was inactive: > 100 µM. With `CC1=C(/C(C)=N/NS(=O)(=O)c2ccc(C)cc2)Sc2ccccc2N1` the GI50 was inactive: > 100 µM. For `COc1cc(NC(C)=O)ccc1C(=O)NN1C(=O)/C(=C/c2ccco2)N=C1c1ccccc1`, the GI50 was inactive: > 50 µM. `COc1cccc(-c2cc(=O)c3cc(C)c(C)c(C(=O)O)c3o2)c1` was tested, and the GI50 was inactive: > 100 µM.
